Experimental findings from the supplement of paper PMC9446081 are described below.

Out of some 39,000 compounds screened, about 220 (0.56%) showed activity. This is one part of the list.
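Note: static incubation at 37 °C against the wild-type strain, values averaged over two biological replicates.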

The assay has as its system Escherichia coli K-12 BW25113. The experiment in a line: relative growth (OD600 normalised to plate interquartile mean) (fraction); higher = less growth inhibition, active = 0.2 or less. As to conditions: 50 µM; LB; incubation time: overnight (16-24 h).
Consider `Cc1cc(C(=O)Nc2cccc3c2O[C@H](CN(C)S(C)(=O)=O)[C@H](C)CN([C@@H](C)CO)C3=O)n(C)n1`, for which the relative growth was inactive: 0.997.

As to `Cc1ccccc1S(=O)(=O)N1C[C@@H](O)COC[C@H]2O[C@@H](CC(=O)NCCc3ccccc3)CC[C@@H]21`, the relative growth was inactive: 1.04.

In the case of `CC(C)NC(=O)Nc1ccc2c(c1)C(=O)N([C@H](C)CO)C[C@@H](C)[C@@H](CN(C)Cc1ccc(Cl)c(Cl)c1)OCCCC[C@H](C)O2`, the relative growth is inactive: 1.02.

On to `Cc1noc(C)c1S(=O)(=O)Nc1cccc2c1O[C@H](CN(C)S(C)(=O)=O)[C@H](C)CN([C@@H](C)CO)C2=O`, for which the relative growth was inactive: 0.991.

For the molecule `Cc1nnc(Nc2cccc([C@H]3CCCN(C(=O)CN)C3)n2)s1`, the relative growth is inactive: 1.02.

As to `COC(=O)c1c2oc(c1C(=O)OC)C(=O)N[C@H](Cc1ccccc1)Cn1cc(nn1)[C@H](Cc1ccccc1)NC(=O)N[C@H](COC(=O)NCCCCCC(=O)NO)CC2`, the relative growth was inactive: 1.04.

`C[C@@H]1CN([C@H](C)CO)C(=O)c2cc(NC(=O)c3ccccc3)ccc2O[C@@H](C)CCCCO[C@@H]1CN(C)CC1CCCCC1`: the relative growth is inactive: 0.981.

For the molecule `COCC#Cc1ccc2c(c1)O[C@H](CN(C)C(=O)Nc1ccc(OC)cc1)[C@@H](C)CN([C@H](C)CO)S2(=O)=O`, the relative growth was inactive: 0.996.

As for `Cc1ccc(S(=O)(=O)Nc2ccc3c(c2)C(=O)N([C@@H](C)CO)C[C@H](C)[C@@H](CN(C)C(=O)Cc2ccccc2)OCCCC[C@@H](C)O3)cc1`, the relative growth was inactive: 1.01.

`C[C@@H]1CN([C@@H](C)CO)C(=O)Cc2cc(NS(C)(=O)=O)ccc2O[C@H]1CN(C)S(=O)(=O)c1ccc(F)cc1`: the relative growth is inactive: 0.988.

`CC(C)NC(=O)N(C)C[C@H]1Oc2c(NC(=O)C3CCOCC3)cccc2C(=O)N([C@@H](C)CO)C[C@@H]1C`: the relative growth was inactive: 0.946.

With `O=C(N[C@@H]1CC[C@H](CCNS(=O)(=O)c2ccc(F)cc2)O[C@@H]1CO)C1CC1`, the relative growth was inactive: 0.991.

Consider `Cc1noc(C)c1S(=O)(=O)Nc1ccc2c(c1)CC(=O)N([C@H](C)CO)C[C@@H](C)[C@H](CN(C)Cc1ccc3c(c1)OCO3)O2`, for which the relative growth is inactive: 1.

Turning to `CCCNC(=O)[C@@]1(Sc2ccc(C)cc2)CC(=O)N(Cc2ccccc2Cl)[C@@H]1c1ccc(CO)cc1I`, the relative growth is inactive: 1.01.

Regarding `C[C@H]1CN([C@@H](C)CO)C(=O)Cc2cc(NS(C)(=O)=O)ccc2O[C@@H]1CN(C)C(=O)Nc1ccc2c(c1)OCO2`, the relative growth is inactive: 1.01.

Regarding `C[C@H](CO)N1C[C@H](C)[C@@H](CN(C)C(=O)Nc2ccc(C(F)(F)F)cc2)Oc2ccc(NC(=O)Cn3cnnn3)cc2C1=O`, the relative growth is inactive: 0.955.

Regarding `CS(=O)(=O)O.CSc1ccc2c(c1)C(N1CCN(C)CC1)Cc1ccccc1S2` (centres undefined), the relative growth is inactive: 0.643.

For `O=C1CN(S(=O)(=O)Cc2ccccc2)C[C@@H]2[C@H](c3ccc(C#Cc4ccc(F)cc4)cc3)[C@H](CO)N12`, the relative growth was inactive: 1.04.

Take `C[C@@H]1CN([C@@H](C)CO)C(=O)Cc2cc(NC(=O)Nc3ccc(C(F)(F)F)cc3)ccc2O[C@H]1CN(C)S(C)(=O)=O`: the relative growth was inactive: 0.972.

Take `C[C@@H]1CN([C@@H](C)CO)C(=O)c2cccc(NC(=O)Nc3ccc(C(F)(F)F)cc3)c2O[C@@H]1CN(C)Cc1ccc(-c2ccccc2)cc1`: the relative growth was inactive: 1.08.

As to `Cc1noc(C)c1NC(=O)N(C)C[C@@H]1OCCCC[C@@H](C)Oc2ccc(NC(=O)NC3CCCCC3)cc2C(=O)N([C@H](C)CO)C[C@@H]1C`, the relative growth is inactive: 0.938.

With `CC1(C)SC2C(NC(=O)C(C(=O)[O-])c3ccccc3)C(=O)N2C1C(=O)[O-].[Na+].[Na+]` (centres undefined), the relative growth is inactive: 1.1.

On to `CC[N+](CC)(CC)CCOc1ccc(/C=C/c2ccccc2)cc1`, for which the relative growth is inactive: 1.01.

`NCCCCCC(=O)O`: the relative growth is inactive: 0.989.

Consider `C[C@H](CO)N1C[C@H](C)[C@H](CN(C)Cc2ccc(Cl)c(Cl)c2)Oc2ccc(NC(=O)Nc3cccc4ccccc34)cc2C1=O`, for which the relative growth is inactive: 0.991.

With `COc1ccc(NC(=O)Nc2ccc3c(c2)C(=O)N([C@@H](C)CO)C[C@H](C)[C@H](CN(C)C(=O)C2CCCCC2)OCCCC[C@@H](C)O3)cc1`, the relative growth is inactive: 1.

In the case of `O=C1N(Cc2ccccc2)c2ccccc2[C@@H]2OC(c3ccc(OCCCO)cc3)=N[C@]12CCS(=O)(=O)c1ccccc1`, the relative growth is inactive: 1.02.

In the case of `C[C@H](CO)N1C[C@H](C)[C@@H](CN(C)Cc2ccc(C(F)(F)F)cc2)Oc2ccc(NC(=O)Nc3ccc(C(F)(F)F)cc3)cc2CC1=O`, the relative growth was inactive: 1.08.

`COc1ccc(CN(C)C[C@H]2OCCCC[C@H](C)Oc3ccc(NC(=O)NC4CCCCC4)cc3C(=O)N([C@H](C)CO)C[C@@H]2C)cc1`: the relative growth was inactive: 1.02.

As for `Cc1noc(C)c1NC(=O)Nc1ccc2c(c1)C(=O)N([C@@H](C)CO)C[C@@H](C)[C@H](CN(C)C(=O)Nc1ccccc1)OCCCC[C@@H](C)O2`, the relative growth was inactive: 1.01.

Regarding `CN(C)CCCNC(=O)C[C@@H]1CC[C@@H]2[C@@H](COc3ccc(NC(=O)NC4CCCC4)cc3C(=O)N2C)O1`, the relative growth is inactive: 1.01.

For the molecule `CCS(=O)(=O)N1[C@@H](CO)[C@@H](c2ccccc2)C12CN(C(=O)CN(C)C)C2`, the relative growth is inactive: 1.02.

With `Cc1noc(C)c1S(=O)(=O)Nc1ccc2c(c1)CC(=O)N([C@H](C)CO)C[C@@H](C)[C@H](CN(C)S(C)(=O)=O)O2`, the relative growth was inactive: 0.994.

Turning to `O=C(NCCCN1CCCC1=O)c1cccnc1`, the relative growth is inactive: 1.01.

With `C[C@@H]1CN([C@H](C)CO)C(=O)c2cccc(NC(=O)CCCCCC(=O)Nc3ccccc3N)c2O[C@H]1CN(C)C(=O)Nc1ccc(C(F)(F)F)cc1`, the relative growth is inactive: 0.954.

Regarding `N[C@@H](C(=O)N[C@@H]1C(=O)N2C(C(=O)O)=C(Cl)CS[C@H]12)c1ccccc1`, the relative growth is active: 0.0303.

Take `C[C@@H]1CN([C@@H](C)CO)S(=O)(=O)c2ccc(/C=C/c3ccccc3)cc2O[C@H]1CN(C)C(=O)Nc1cc(F)ccc1F`: the relative growth was inactive: 1.04.

As for `C[C@@H]1CN([C@H](C)CO)C(=O)c2cc(C#CCN(C)C)cnc2O[C@H]1CN(C)C(=O)c1cnccn1`, the relative growth is inactive: 0.977.

In the case of `CC(C)CC#Cc1cnc2c(c1)C(=O)N([C@@H](C)CO)C[C@@H](C)[C@@H](CN(C)C(=O)CCN1CCCCC1)O2`, the relative growth is inactive: 0.965.
